# Results reported in PMC9911399, “Two distinct binding modes provide the RNA-binding protein RbFox with extraordinary sequence specificity”.
# Substitutions are numbered along the chain they refer to; changes in the protein carry UniProt numbers. The list shows a part of the results.
# T1: RBFOX1 RRM (Homo sapiens, UniProt Q9NWB1 109-208)
# T1 sequence: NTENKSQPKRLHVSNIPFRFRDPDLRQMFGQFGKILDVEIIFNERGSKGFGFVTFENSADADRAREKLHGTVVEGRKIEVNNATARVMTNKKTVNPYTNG
# B1: AAACGAG (DNA:RNA)
# RNA: GGGAGACCGGAAUUCAGAUUGUCCAAACGAGUUAAAUCCCGUCGUAGCCACCA
# DNA 1: CAATCTGAATTCCGGTCTCCC
# DNA 2: TGGTGGCTACGACGGGATT
# B2: AGGGGCA (DNA:RNA)
# RNA: B1 RNA with A26G, A27G, C28G, A30C, G31A
# DNA 1: CAATCTGAATTCCGGTCTCCC
# DNA 2: TGGTGGCTACGACGGGATT
# B3: CAUGGCG (DNA:RNA)
# RNA: B1 RNA with A25C, A27U, C28G, A30C
# DNA 1: CAATCTGAATTCCGGTCTCCC
# DNA 2: TGGTGGCTACGACGGGATT
# B4: UGCCCAC (DNA:RNA)
# RNA: B1 RNA with A25U, A26G, A27C, G29C, G31C
# DNA 1: CAATCTGAATTCCGGTCTCCC
# DNA 2: TGGTGGCTACGACGGGATT
# B5: CCAUCAG (DNA:RNA)
# RNA: B1 RNA with A25C, A26C, C28U, G29C
# DNA 1: CAATCTGAATTCCGGTCTCCC
# DNA 2: TGGTGGCTACGACGGGATT
# B6: UCAUAAC (DNA:RNA)
# RNA: B1 RNA with A25U, A26C, C28U, G29A, G31C
# DNA 1: CAATCTGAATTCCGGTCTCCC
# DNA 2: TGGTGGCTACGACGGGATT
# B7: UAACCAG (DNA:RNA)
# RNA: B1 RNA with A25U, G29C
# DNA 1: CAATCTGAATTCCGGTCTCCC
# DNA 2: TGGTGGCTACGACGGGATT
# B8: GGUCAAU (DNA:RNA)
# RNA: B1 RNA with A25G, A26G, A27U, G29A, G31U
# DNA 1: CAATCTGAATTCCGGTCTCCC
# DNA 2: TGGTGGCTACGACGGGATT
# B9: GAGGCGC (DNA:RNA)
# RNA: B1 RNA with A25G, A27G, C28G, G29C, A30G, G31C
# DNA 1: CAATCTGAATTCCGGTCTCCC
# DNA 2: TGGTGGCTACGACGGGATT
# B10: AACACUA (DNA:RNA)
# RNA: B1 RNA with A27C, C28A, G29C, A30U, G31A
# DNA 1: CAATCTGAATTCCGGTCTCCC
# DNA 2: TGGTGGCTACGACGGGATT
# B11: ACUGUAU (DNA:RNA)
# RNA: B1 RNA with A26C, A27U, C28G, G29U, G31U
# DNA 1: CAATCTGAATTCCGGTCTCCC
# DNA 2: TGGTGGCTACGACGGGATT
# B12: GCAAGGU (DNA:RNA)
# RNA: B1 RNA with A25G, A26C, C28A, A30G, G31U
# DNA 1: CAATCTGAATTCCGGTCTCCC
# DNA 2: TGGTGGCTACGACGGGATT
# B13: GCUGCUC (DNA:RNA)
# RNA: GGGAGACCGGAAUUCAGAUUGUCCGCUGCUCUUAAAUCCCGUCGUAGCCACCA
# DNA 1: CAATCTGAATTCCGGTCTCCC
# DNA 2: TGGTGGCTACGACGGGATT
# B14: CUCGAAA (DNA:RNA)
# RNA: B1 RNA with A25C, A26U, A27C, C28G, G29A, G31A
# DNA 1: CAATCTGAATTCCGGTCTCCC
# DNA 2: TGGTGGCTACGACGGGATT
# B15: ACGCCAU (DNA:RNA)
# RNA: B1 RNA with A26C, A27G, G29C, G31U
# DNA 1: CAATCTGAATTCCGGTCTCCC
# DNA 2: TGGTGGCTACGACGGGATT
# B16: UUCGCUC (DNA:RNA)
# RNA: B13 RNA with G25U, C26U, U27C
# DNA 1: CAATCTGAATTCCGGTCTCCC
# DNA 2: TGGTGGCTACGACGGGATT
# B17: CUCGGUU (DNA:RNA)
# RNA: B13 RNA with G25C, C26U, U27C, C29G, C31U
# DNA 1: CAATCTGAATTCCGGTCTCCC
# DNA 2: TGGTGGCTACGACGGGATT
# B18: CGGCCCG (DNA:RNA)
# RNA: B1 RNA with A25C, A26G, A27G, G29C, A30C
# DNA 1: CAATCTGAATTCCGGTCTCCC
# DNA 2: TGGTGGCTACGACGGGATT
# B19: UUCUAGA (DNA:RNA)
# RNA: GGGAGACCGGAAUUCAGAUUGUCCUUCUAGAUUAAAUCCCGUCGUAGCCACCA
# DNA 1: CAATCTGAATTCCGGTCTCCC
# DNA 2: TGGTGGCTACGACGGGATT
# B20: ACAUUAC (DNA:RNA)
# RNA: B1 RNA with A26C, C28U, G29U, G31C
# DNA 1: CAATCTGAATTCCGGTCTCCC
# DNA 2: TGGTGGCTACGACGGGATT
# Molecular target: T1, RBFOX1 RRM
# Test: EMSA; HiTS-Eq, 1 nM pool, 10 min; buffer printed only for the single-RNA assays: 10 mM Tris pH 7.5, 150 mM NaCl, 3.4 mM EDTA, 0.001% NP-40, 30 C
# Details: tags: His6 N-terminal (pET28a); label: 5' 32P
# How it was run: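 These values rest on relative association constants, computed from read-count changes of each RNA species versus the control reaction and normalised to the cognate motif. Reads came from free RNA recovered by 8% native PAGE after purified RbFox RRM (wild type or mutant) at increasing concentrations was equilibrated for 10 min in 50 µL with 1 nM of a 5′-radiolabelled pool with 7 randomized nucleotides and DNA-annealed flanks.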
row,Binder,binding signal
1,B1,0.00397 KA relative to UGCAUGU
2,B2,0.0186 KA relative to UGCAUGU
3,B3,0.0121 KA relative to UGCAUGU
4,B4,0.0137 KA relative to UGCAUGU
5,B5,0.00445 KA relative to UGCAUGU
6,B6,0.00106 KA relative to UGCAUGU
7,B7,0.00446 KA relative to UGCAUGU
8,B8,0.00248 KA relative to UGCAUGU
9,B9,0.0219 KA relative to UGCAUGU
10,B10,0.000181 KA relative to UGCAUGU
11,B11,0.00512 KA relative to UGCAUGU
12,B12,0.00853 KA relative to UGCAUGU
13,B13,0.0171 KA relative to UGCAUGU
14,B14,0.00304 KA relative to UGCAUGU
15,B15,0.00141 KA relative to UGCAUGU
16,B16,0.0157 KA relative to UGCAUGU
17,B17,0.0133 KA relative to UGCAUGU
18,B18,0.00673 KA relative to UGCAUGU
19,B19,0.0127 KA relative to UGCAUGU
20,B20,0.00108 KA relative to UGCAUGU
